# Hit rate of the full screen: of about 360,000 compounds, about 6,000 (1.7%) were called active. The shares of active, inactive and inconclusive entries below differ from those in the screen. Calls follow the shape of the dose curve; as a rule, active = well fitted cell-killing curve with a large enough effect; inconclusive = small, poorly fitted or top-dose-only effect, or effect the other way; inactive = flat fitted curve, though single readings scatter. No potency is given beside an inconclusive call; the fits are too rough.
# Experiment: qHTS for induction of synthetic lethality in tumor cells producing 2HG: qHTS for the HT-1080-NT fibrosarcoma cell line;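 also: NT is the 2HG producing partner of a matched IDH1 knockdown line; nearly all actives have a fitted effect of over 55% in size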;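 as to activity, negative = less viability: 0% = DMSO-treated cells and -100% = media-only wells without cells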
# Settings: HT-1080-NT fibrosarcoma viability, CellTiter-Glo ATP luminescence, 48 h; activity, negative = less viability: at 46.1 µM (top of the series) unless noted
# Method in brief: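 HT-1080-NT; 750 cells/well; 5% FBS RPMI; 48 h compound, 37 degrees C; CellTiter-Glo luminescence; curve fitting and curve-class assignment.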
# Potency is read from the fitted curve at half-maximal effect; tags tell the direction and shape of the fitted curve.
Structure (SMILES),"activity, negative = less viability",Potency
CNC(=O)c1ncoc1-c1ccc(Cl)cc1,inconclusive: 35.3%,
O=C(Nc1ccc(Cl)cn1)Nc1ccc(Cl)cn1,,"inconclusive [rising, partial curve]"
Cc1ccc(NC(=O)Cn2cnc3sc(C(=O)NCc4ccco4)c(C)c3c2=O)cc1Cl,,"inconclusive [cytotoxic, single point]"
O=C(CN1CCOCC1)NN=C1CCCCCCCCCCC1,inactive: 13.3%,
O=C(N/N=C/c1ccc(Cl)cc1Cl)C(=O)NC1CC1,inactive: 12.2%,
CC(C)Oc1ccc(F)cc1-c1cc(C(=O)NC2CCCCC2)[nH]n1,inactive: 4.73%,
COc1ccccc1NC(=O)CC1S/C(=N/N=C2\CCCc3ccccc32)NC1=O (configuration not stated),,"inconclusive [cytotoxic, partial curve]"
COC(=O)c1c(NC(=S)NNC(=O)c2ccc(Cl)s2)sc(C(=O)N(C)C)c1C,,"inconclusive [rising, single point]"
O=S(c1ccc2ccccc2c1)c1cnns1 (configuration not stated),,"inconclusive [cytotoxic, single point]"
Cc1ccc(-c2[nH]c3ccccc3c2SCCNC(=O)c2cc3ccccc3oc2=O)cc1,,"inconclusive [cytotoxic, single point]"
CCOC(=O)c1cnc(SCC(=O)Nc2cccc(OC)c2)nc1N,,"inconclusive [cytotoxic, single point]"
CC1=C(SCc2ccccc2)C(=O)c2ccccc2C1=O,,active: 9.2 µM
O=C(NC(=S)Nc1ccc(NC(=O)c2ccccc2)cc1)c1ccc(F)cc1,,"inconclusive [cytotoxic, single point]"
CC(C)/C(=N\NC(=O)Nc1ccccc1)c1ccccc1,inactive: 14.4%,
CN(C)CCNC(=O)c1cc2c(s1)-c1ccccc1OC2,,"inconclusive [cytotoxic, single point]"
CC(=O)OC1(C(C)=O)CCC2C3CC4OC45CC(O)CCC5(C)C3CCC21C (configuration not stated),inconclusive: 8.34% [cytotoxic],
CCN(CC)c1ccc(C=Nc2cc(C)ccc2C)c(O)c1,inactive: 0.549%,
COc1cc(CSc2nnnn2-c2ccc(C)cc2)cc(OC)c1OC,,"inconclusive [cytotoxic, partial curve]"
CCOC(=O)Cn1nc(C)cc1NC(=O)c1cc(OC)c(OC)c(OC)c1,inactive: -29%,
N#C/C(=C/c1ccc(O)c([N+](=O)[O-])c1)C(=O)Nc1ccccc1,,"inconclusive [cytotoxic, partial curve]"
O=C(c1cccc(Cl)c1)N1CCN(c2ccc3c(c2)C2CC3CCN2C(=O)OCc2ccccc2)CC1 (configuration not stated),,"inconclusive [cytotoxic, single point]"
CC1=C(N2CCN(c3ncccn3)CC2)CCC1=O,,"inconclusive [rising, single point]"
Cc1nnc(Sc2cc(NCCCO)c([N+](=O)[O-])c3nonc23)s1,,active: 16.4 µM
Cc1ccc(Nc2nc(-c3cccnc3)nc3ccccc23)cc1,,"inconclusive [cytotoxic, single point]"

Structure (SMILES),"activity, negative = less viability",Potency
Cc1ccccc1NC(=O)C(=O)NNC(=O)COc1ccc2ccccc2c1,inactive: -16.4%,
COc1cc(C)c(C)cc1S(=O)(=O)NC1CC(C)(C)NC(C)(C)C1,inactive: 14.1%,
O=C(NC1CC1)c1scc2c1OCCO2,inactive: 8.19%,
CC(C)c1ccc(S(=O)(=O)c2cc3cc(Br)ccc3oc2=O)cc1,,active: 13 µM
Cc1cccc(NC(=O)Cn2cnc3c(cnn3-c3ccc(F)cc3)c2=O)c1C,,"inconclusive [cytotoxic, single point]"
COCCCNC(=O)c1cccc2c(-c3cccc(C(N)=O)c3)coc12,inactive: -14.1%,
COCOCCn1cc(CN2CCS(=O)(=O)N(Cc3ccc(-c4ccc(Cl)cc4)cc3)C(CC(C)C)C2=O)nn1 (configuration not stated),,"inconclusive [cytotoxic, single point]"
CC(NC(=O)c1cccs1)C(c1cccs1)N1CCN(c2ccccc2)CC1 (configuration not stated),inactive: -10.7%,
C=CCN(C(=O)c1ccc2snnc2c1)c1ccccc1,inactive: 8.8%,
O=c1c(O)c(-c2ccccc2)oc2cc(O)cc(O)c12,inactive: -4.65%,
CCOC(=O)c1ccc(NC(=O)Nc2nncs2)cc1,,active: 1.16 µM
O=[N+]([O-])c1cc(C(F)(F)F)ccc1NCCNC(=S)Nc1ccc(Cl)cc1,,active: 17.8 µM
CCOC(=O)c1ccc(NC(=S)N(CCCN2CCN(CC)CC2)Cc2ccco2)cc1,,"inconclusive [cytotoxic, single point]"
COc1cc(-c2cnc3c(NC(C)=O)cc(-c4ccccc4CN(C)C)cn23)cc(OC)c1OC,,"inconclusive [cytotoxic, single point]"
O=S(=O)(c1cc(F)ccc1F)N1CCN(c2ncnc3ccccc23)CC1,,"inconclusive [cytotoxic, full curve]"
CCOC(=O)c1c(NC(=O)CN(CC)CC)sc2c1CCN(C(=O)OCC)C2,,"inconclusive [cytotoxic, single point]"
CCCCCCCCN1C(=O)[C@H](CC(=O)NCc2ccc(C)o2)C[C@@]2(C(=O)OCC)CCC=C12,,"inconclusive [cytotoxic, single point]"
N#CC1=C(N)NC(SCC(=O)c2ccc(Cl)cc2)=C(C#N)C12CCCC2,,"inconclusive [cytotoxic, single point]"
Cc1ncc(C)c2c([N+](=O)[O-])cccc12,inactive: 11.6%,
CC(/C=N/NC(=O)c1nnn(-c2nonc2N)c1C)=C\c1ccccc1,inconclusive: 31.9%,
CCN(CC)C(=O)Cn1cc(C(=O)C(=O)NCc2ccco2)c2ccccc21,inactive: -4.75%,
CCN(C(=O)CCN1C(=O)/C(=C/c2ccccc2)SC1=S)C1CCS(=O)(=O)C1 (configuration not stated),,"inconclusive [cytotoxic, single point]"
COc1ccc(C2NCCc3c2[nH]c2ccccc32)cc1CN1CCc2cc(OC)c(OC)cc2C1C (configuration not stated),,active: 18.4 µM
COc1ccc(NC(=O)C2(C)Cc3c(-c4ccc5c(c4)OCO5)ccnc3O2)cc1 (configuration not stated),,"inconclusive [cytotoxic, partial curve]"

Structure (SMILES),"activity, negative = less viability",Potency
CN(C)c1ncnc2c1ncn2[C@H]1CN(Cc2ccc(Cl)cc2)C[C@@H](CO)O1,,"inconclusive [rising, partial curve]"
COC(=O)C1=C(C)N(Cc2ccco2)C(=O)/C1=C\c1ccc([N+](=O)[O-])cc1,,"inconclusive [cytotoxic, partial curve, poor fit]"
CCOC(=O)[C@]12CCCC=C1N(Cc1ccco1)C(=O)[C@H](CC(=O)NCC13CC4CC(CC(C4)C1)C3)C2,,"inconclusive [cytotoxic, single point]"
CCC(C)Nc1nc(-c2ccccn2)nc2ccccc12 (configuration not stated),,"inconclusive [cytotoxic, single point]"
COc1ccc(N2CCC(CNC(=S)Nc3cc(C)cc(C)c3)C2)cc1 (configuration not stated),,"inconclusive [cytotoxic, single point]"
CCCCCn1c(CNC(=O)c2cccs2)nc2ccccc21,,active: 12.6 µM
COc1cccc(C(=O)NCCS(=O)(=O)N2CCCCC2)c1,inactive: 11.8%,
CC(C)=CCC/C(C)=C/CNC(=O)C[C@H]1C[C@H](C(=O)N(C(C)C)C(C)C)[C@@]2(C)c3[nH]c4cc(-c5ccco5)ccc4c3CCN2C1=O,,"inconclusive [cytotoxic, single point]"
COc1cc(C=C(c2nc3ccccc3s2)c2nc3ccccc3s2)ccc1O,,"inconclusive [cytotoxic, single point]"
C=CCn1c(SCC(=O)Nc2ccc(F)cc2)nnc1-c1cnccn1,inactive: 0.79%,
CCN(CC)CC1C(=O)N(c2ccc(OC)cc2)C1c1ccccc1 (configuration not stated),inactive: -20.4%,
Cc1ccc2ccccc2c1C(O)c1ncc(-c2ccccc2F)[nH]1 (configuration not stated),inactive: -26.3%,
CC(C)(C)OC(=O)N(CCc1ccccc1)Cc1ccccc1OCc1cccc(NC(=O)C2CCCC2)c1,inconclusive: -7.06% [cytotoxic],
CCOc1ccc(N(C)C(=O)CCc2nnc3ccc(N4CCCCC4)nn23)cc1,inactive: -3.02%,
CC(C)(C)c1nc(SCC(=O)NNC(=O)c2ccccc2)c2ccccc2n1,,"inconclusive [cytotoxic, single point]"
CCOC(=O)c1sc(N/N=C/c2ccccc2)nc1C,,"inconclusive [cytotoxic, single point]"
CCC(=O)Oc1c(S(=O)(=O)c2ccc(C)cc2)c(C)nn1C(C)(C)C,,"inconclusive [cytotoxic, single point]"
COc1cc(C(=O)OCC(=O)Nc2sccc2C(N)=O)cc(OC)c1OC,,"inconclusive [cytotoxic, full curve]"
Cc1nc2ccccc2n1CC(=O)OCC(=O)NCc1ccccc1,,"inconclusive [rising, single point]"
CN(C)CCNc1ncnc2c1sc1nc(N3CCOCC3)c3c(c12)CC(C)(C)SC3,,"inconclusive [cytotoxic, single point]"
COc1cc(S(=O)(=O)Nc2cc(C)cc(C)c2)ccc1F,inconclusive: -30% [cytotoxic],
OC(CN1CCN(c2ccccc2)CC1)Cn1c2ccccc2c2ccccc21 (configuration not stated),inactive: 6.1%,
Cc1ccccc1OCC(O)CN(Cc1ccccc1O)C1CCCCC1 (configuration not stated),,"inconclusive [cytotoxic, single point]"
CCCNc1nc(Nc2ccc(C)c(Cl)c2)c2cnn(C)c2n1,,"inconclusive [cytotoxic, single point]"
